SMILES strings stand for the structures.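 Cultured in 96-well plates, cells were exposed to test compound for 48 hours across five concentrations. Here, GI50 denotes the concentration required for 50% inhibition of growth.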 Activity calls are given as the source filed them. No stated cut-off is given here; in the data, active = GI50 up to about 1.1 µM and inactive = higher.

This experiment concerns NCI-H322M. Put plainly: NCI-60 cell line screen, 48 h.
In the case of `COc1ccc2[nH]c(C(=O)N3CC(CCl)c4c3cc(N)c3ccccc43)cc2c1` (centres undefined), the GI50 was active: < 0.0146 µM. With `COc1cc(OC)cc(-c2cc(O)c3cc4c(cc3n2)OCO4)c1`, the GI50 is active: 0.285 µM. Under `CC(C)(CO)N1CCN(C(S)=Nc2ccccc2)CC1` stands inactive: > 100 µM; under `CC(C)Oc1cc2c(cc1O)CC[C@@H]1[C@@H]2CC[C@]2(C)[C@@H](O)CC[C@@H]12`, inactive: 10.9 µM; under `CCOC(=O)c1c2c(n(Cc3ccccc3)c1C)C(=O)C(=O)c1ccccc1-2`, active: 0.515 µM. Under `OCCN(CCO)c1ncnc2[nH]cnc12` stands inactive: > 100 µM.

For `CO/N=C(\C)c1ccc(Nc2c3ccccc3nc3occc23)cc1`, the GI50 is inactive: 2.65 µM. `CC1(C)OCC(COC(=O)NCn2cc(-c3ccccc3)nn2)O1` (centres undefined): the GI50 was inactive: > 100 µM. For `Cc1nnc(N/N=C(/C(=O)C(C#N)c2ccccc2)C(C#N)c2ccccc2)n1N` (centres undefined), the GI50 is inactive: 15.1 µM. Under `CC[C@@]1(O)C(=O)OCc2c1cc1n(c2=O)Cc2c-1nc1ccc(O)cc1c2CC[Si](C)(C)C` stands active: 0.0254 µM; under `CC(=O)O/C=C\OC1CCCC1(c1ccccc1)c1ccccc1` (centres undefined), inactive: 11.7 µM. For the compound `COc1cc2c3c4[n+](cc2c(OC)c1OC)CCC4CCC3` (centres undefined), the GI50 is inactive: > 100 µM. As for `CCN(CC)CC(C)(C)C(=O)/C=C/c1ccc(C)cc1`, the GI50 is inactive: 4.94 µM.

Consider `CCc1cccc(C(C)C)c1N1C(=O)C(=O)C(c2nc3ccccc3s2)C(=O)C1=O`, for which the GI50 was inactive: > 50 µM. Consider `COc1cc2c(cc1OC)C(=O)/C(=C/c1ccc(N(C)C)cc1)CC2`, for which the GI50 is inactive: > 10 µM. Regarding `O=c1[c-](-c2ccccc2)[se]c(-c2ccccc2)[n+]1-c1ccccc1`, the GI50 is inactive: 4.08 µM. Under `O=C(c1ccsc1)c1nccc2c1cnc1ccccc12` stands inactive: > 100 µM; under `CCN(CC)CCNC(=O)c1cccc2cc3ccccc3nc12`, inactive: 6.62 µM; under `CC1=NOC(=O)/C1=C/c1cccc2ccccc12`, inactive: > 100 µM.

For `CC1=C(O)C(=O)C[C@]2(C)[C@H]3CC=C4[C@@H]5CC(C)(C)CC[C@@H]5C(=O)[C@H](O)[C@@]4(C)[C@]3(C)CC[C@@H]12`, the GI50 was inactive: > 50 µM. As to `C1COCCSC2=C(SCCO1)SC(=C1SC3=C(SCCOCCOCCS3)S1)S2`, the GI50 was inactive: > 100 µM. Then `O=C1/C(=C/c2ccc(OC(=O)c3ccccc3)cc2)CCC/C1=C\c1ccc(OC(=O)c2ccccc2)cc1`, with inactive: > 100 µM; and `N#Cc1ccc(Cc2ccccn2)cc1Cl`, with inactive: > 100 µM; and `COC1(OC)N=C(N)C2(C#N)C3(C(=O)N(C(C)C)N=C3C)C12C#N` (centres undefined), with inactive: > 100 µM.

In the case of `COc1ccc(/N=N/c2c(O)ccc3ccccc23)cc1`, the GI50 is inactive: > 100 µM.

For `O=c1[nH]nc(-c2ccccc2)n1/N=C/c1c[nH]c2ccccc12`, the GI50 was inactive: > 100 µM. Turning to `CCOc1ccc(NC(=O)CC2SC(N)=NC2=O)cc1` (centres undefined), the GI50 is inactive: > 100 µM. `COC(=O)C1CCC2(CC1)NC(=O)NC2=O` (centres undefined): the GI50 is inactive: > 100 µM. Consider `COc1c(-c2cc(C)c(Cl)c(=O)[nH]2)c(O)c(OC)c2occc12`, for which the GI50 was inactive: > 100 µM.

Consider `CN(C)c1ccc(/C(F)=C(F)/C(F)=C(F)/C(F)=C(\F)c2ccc(Br)cc2)cc1`, for which the GI50 was inactive: 29.2 µM. For `CCOC(=O)c1c2ccccc2n2c(N)c(C(N)=O)nnc12`, the GI50 was inactive: 62.4 µM. Take `CCOC(=O)c1ccc(/N=C/C=C(\Nc2ccc(C(=O)OCC)cc2)C23CC4CC(CC(C4)C2)C3)cc1`: the GI50 was inactive: 82.4 µM.

In the case of `CC1(O)C=CC2CCC1C2O` (centres undefined), the GI50 was inactive: > 100 µM. For the compound `CCCCCCCCCCCCCCCCCCOc1ccc(/C=C/C2=[N+](CCCl)CCO2)cc1`, the GI50 is inactive: > 100 µM.

As to `Clc1cc2ncn(C3CCCCO3)c2cc1Cl` (centres undefined), the GI50 was inactive: 96.4 µM. In the case of `CCn1c(=O)c2c3ccc(OC)cc3[nH]c2c2ccc(OC)cc21`, the GI50 is inactive: 62.8 µM. Then `CCc1nc2ccc(C(F)(F)F)cc2[nH]c1=O`, with inactive: > 100 µM. For the compound `Cc1cc([N+](=O)[O-])c(C)c2c1[nH]c1ccc(O)cc12`, the GI50 is inactive: > 100 µM.

Consider `CC(C)(C)c1ccc2c(c1)C#Cc1cc3c(cc1OCCCO2)C#Cc1cc(C(C)(C)C)ccc1OCCCO3`, for which the GI50 is inactive: > 100 µM. As to `CC(C)(C)OC(=O)NC(Cc1ccccc1)OCc1ccccc1` (centres undefined), the GI50 is inactive: 20.4 µM.

Turning to `CC1=C(C(=O)NNC(=O)C(N)=O)CC(C(=O)NNC(=O)C(N)=O)=C(C)N1`, the GI50 was inactive: > 100 µM. Take `CCN(CC)CCCNC(=O)c1ccccc1Nc1c(Cl)cccc1Cl`: the GI50 is inactive: 14.5 µM.

`COc1nc2ccc(COc3ccc(C(=O)O)cc3)cc2nc1OC`: the GI50 was inactive: > 100 µM. On to `COc1ccc(C2C(Cl)C(=O)N2NC(=O)c2ccc(N)cc2)cc1` (centres undefined), for which the GI50 was inactive: > 100 µM. Regarding `COc1ccc(/C=C/C(=O)c2nc3ccccc3[nH]2)cc1`, the GI50 was inactive: 25.6 µM. Then `CN(C)C(=O)NCCN1CCCCCc2ccccc21`, with inactive: > 100 µM; and `CCOC(=O)c1cnc2sc3ccc4ccccc4c3n2c1=O`, with inactive: 58.1 µM; and `C=CCC1(CN(C)C)CC/C(=C\c2ccc(OC)cc2)C1=O` (centres undefined), with inactive: > 100 µM.

With `COc1cccc(N2C(=O)C3c4[nH]c5ccccc5c4C4c5ccccc5CCC4C3C2=O)c1` (centres undefined), the GI50 was inactive: > 10 µM. On to `CC(C)OC(=O)c1ccc(CCc2cc(O)c(Br)cc2O)cc1`, for which the GI50 was inactive: 23.2 µM. In the case of `COC(=O)/C(C#N)=C1\CCC(O)N1C` (centres undefined), the GI50 is inactive: > 100 µM.

For the compound `CCOc1cc2c(cc1O)/C(=N/NS(=O)(=O)c1ccc(C)cc1)C[C@@H]1[C@@H]2CC[C@]2(C)[C@@H](O)CC[C@@H]12`, the GI50 was inactive: 26.9 µM. Regarding `CC12CCC3(OCCO3)C(OC(=O)c3ccccc3)=C1CCC21OCCO1` (centres undefined), the GI50 is inactive: > 100 µM. With `NC(CC1=CS(=O)(=O)c2ccc(Cl)cc21)C(=O)O` (centres undefined), the GI50 is inactive: > 100 µM. `C#CCOC(=O)C(N)C(C)O` (centres undefined): the GI50 is inactive: > 100 µM. Then `COc1cc(/C=C/c2cc(=O)cc(/C=C/c3ccc(O)c(OC)c3)o2)ccc1O`, with inactive: 38.3 µM; and `Cn1ccnc1CC(C)(O)c1ccccc1` (centres undefined), with inactive: > 100 µM. Turning to `Nc1cc(Cl)cc2cc(Cl)cnc12`, the GI50 was inactive: > 100 µM. `CC(NC1=NCCO1)c1ccsc1` (centres undefined): the GI50 was inactive: 37.5 µM. As to `O=C(O)C1(c2ccccc2)CCCNCC1` (centres undefined), the GI50 was inactive: > 100 µM. Take `C[C@@H]1OC(=O)C[C@H]2CC(=O)N(CCc3cn(S(=O)(=O)C(F)(F)F)c4ccccc34)C[C@@H]21`: the GI50 is inactive: > 100 µM. For the compound `O=[N+]([O-])c1ccc(NN/N=N/c2ccc(-c3nc4ccccc4s3)cc2)c([N+](=O)[O-])c1`, the GI50 is inactive: 23.9 µM. Turning to `Cc1ccc(C(=O)N/N=C(\N=N\c2ccc(C(=O)O)cc2)c2ccc(N(CCC#N)CCC#N)cc2C)cc1`, the GI50 is inactive: > 100 µM.

Take `CCOc1ccc(NC(=S)N/C=C(/C(C)=O)C(=O)Nc2ccccc2C)cc1`: the GI50 is inactive: > 100 µM. As to `C=C1C(=O)O[C@@H]2[C@@H]3O[C@@H](C[C@@H]13)[C@](C)(O)CC/C=C(\C)CCC[C@@H]2C`, the GI50 was inactive: 18.7 µM.

As for `O=c1[nH]c2ccc(CC(=S)N3CCN(c4ccccc4)CC3)cc2s1`, the GI50 is inactive: 53.6 µM. With `CCN(CC)CCSc1c2ccccc2nc2cc(NCC(=O)Nc3ccccc3-c3ccccc3NC(=O)CNc3ccc4c(SCCN(CC)CC)c5ccccc5nc4c3)ccc12`, the GI50 is inactive: > 85.1 µM. With `C=C(C)COC1CCCCO1` (centres undefined), the GI50 was inactive: > 100 µM. Consider `COc1ccc(-c2nc(SCC(=O)NNC(=S)Nc3ccccc3)[nH]c2-c2ccc(OC)cc2)cc1`, for which the GI50 is inactive: 32 µM. Consider `CS(=O)(=O)OCCCCOS(=O)(=O)CF`, for which the GI50 was inactive: > 100 µM. Under `O=C1NCCCC12CCCNC2=O` stands inactive: > 100 µM. With `CC(=O)Nc1[nH]c(C#N)nc1C#N`, the GI50 was inactive: > 100 µM. For the compound `CCOC(=O)C1=CC(C)(C(=O)OCC)Nc2c(nc(SC)[nH]c2=O)N1` (centres undefined), the GI50 was inactive: > 10 µM. For the compound `Cc1cc2ncn(C3CCCO3)c2cc1C` (centres undefined), the GI50 was inactive: > 100 µM. For `C[Si](C)(OCCS(=O)(=O)O)C1S(=O)(=O)OCCOS1(=O)=O`, the GI50 is inactive: > 100 µM. As to `O=S(O)CCCCCSSc1ccc(Cl)cc1`, the GI50 was inactive: 31 µM.

For the compound `CCOC(=O)P(=O)(O)c1ccc(N(C)Cc2ccccc2)cc1`, the GI50 was inactive: > 100 µM. `O=S(=O)(O)c1cc(/N=[N+](\[O-])c2cc(S(=O)(=O)O)c3ccccc3c2)cc2ccccc12`: the GI50 is inactive: 40.6 µM. `CCN(CC)[C@@H]1c2cc3c(cc2C(c2cc(OC)c(O)c(OC)c2)C2C(=O)CO[C@@H]21)OCO3` (some centres undefined): the GI50 is inactive: > 100 µM. Consider `CCC1(O)C[C@H]2CN(CCCc3c([nH]c4ccccc34)[C@@](C(=O)OC)(c3cc4c(cc3OC)N(C)C3[C@](O)(C(=O)OC)[C@H](OC(C)=O)[C@]5(CC)C=CCN6CC[C@]43[C@H]65)C2)C1` (some centres undefined), for which the GI50 was inactive: 2.71 µM.

With `O=c1cccc2n1C[C@H]1CNC[C@H]2C1`, the GI50 is inactive: > 100 µM. As for `CC(O[Si](c1ccccc1)(c1ccccc1)C(C)(C)C)[C@H](NC(=O)OC(C)(C)C)C(=O)O` (some centres undefined), the GI50 is inactive: 39.4 µM.

Take `COC(=O)c1cccc(N[C@@H]2c3cc4c(cc3C(c3cc(OC)c(O)c(OC)c3)[C@H]3C(=O)OCC32)OCO4)c1` (some centres undefined): the GI50 was inactive: 9.2 µM. For the compound `CN(C)c1nc2sc3c(c2c(=O)o1)CCCC3`, the GI50 was inactive: > 100 µM.

The values above are taken from ChEMBL document CHEMBL1201862, “PubChem BioAssay data set” (2004).
